{
  "source": "PubChem BioAssay AID662",
  "about": "(National Center for Advancing Translational Sciences (NCATS), 2007)",
  "note": "About 1,800 (2.5%) of roughly 71,000 compounds were called active. The shares of active, inactive and inconclusive entries below differ from those in the screen. Calls follow the shape of the dose curve; as a rule, active = well fitted activation curve with a large enough effect in the signal ratio, with a control signal flat (not every such curve was filed as active); inconclusive = small, poorly fitted or top-dose-only effect, or effect the other way, or a change in a side signal; inactive = flat fitted curve, though single readings scatter; the % refers to the signal ratio. Potencies of inconclusive entries are doubtful fits and often do not repeat. Potency is read from the fitted curve at half-maximal effect; tags tell the direction and shape of the fitted curve.",
  "data": [
    {"assay": "Cell signaling CRE-BLA (Fsk stim); as to activity change, negative = inhibition: % of control where 0% means no effect", "conditions": "CHO CRE-bla reporter (cAMP response element driving beta-lactamase), forskolin EC10, beta-lactamase ratio; activity change, negative = inhibition: at 38.2 µM (top of the series) unless noted", "method_in_brief": "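CRE-bla CHO cells stimulated with EC10 NKH 477 (water-soluble forskolin) and compound titrations, 3 h at 37C; beta-lactamase read with CCF4 after 2 h at room temperature. Activity from 460/530 nm emission ratio, AC50 values for positive or negative modulation.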", "values": [
      {"smiles": "O=C(NC1=NC2CCCCC2N1)c1ccccc1", "note": "(stereo unspecified)", "activity change, negative = inhibition": "inactive: -4.17%"},
      {"smiles": "CN(C)S(=O)(=O)c1cc(C(=O)NCCCn2ccc3ccccc32)ccc1Cl", "activity change, negative = inhibition": "inactive: -6.28%"},
      {"smiles": "Cc1cc(Cl)ccc1N=Cc1c(O)n(C)c(=O)n(C)c1=O", "Potency": "inconclusive: 3.98 µM [rising, single point]"},
      {"smiles": "O=C(O)c1ccc(Cl)c2c1C1C=CCC1C(c1ccccn1)N2", "note": "(stereo unspecified)", "activity change, negative = inhibition": "inactive: -13.1%"},
      {"smiles": "COc1ccc(S(=O)(=O)N(C)c2ccc(OCC(=O)Nc3cc(C)on3)cc2)cc1", "activity change, negative = inhibition": "inconclusive: -1.89%"},
      {"smiles": "CCCC(=O)Nc1ccc(NC(=O)c2ccco2)c(OC)c1", "activity change, negative = inhibition": "inactive: 9.08%"},
      {"smiles": "CC(C)(C)N1C(=O)c2ccc(C(=O)O)cc2C1=O", "activity change, negative = inhibition": "inconclusive: 16.3%"},
      {"smiles": "O=C(C1CC1c1ccccc1)N1CCN(c2cccc(Cl)c2)CC1", "note": "(stereo unspecified)", "activity change, negative = inhibition": "inactive: -1.84%"},
      {"smiles": "Cc1ccc(S(=O)(=O)NCc2cccc([N+](=O)[O-])c2)cc1", "activity change, negative = inhibition": "inactive: 2.66% [at 7.6 µM]"},
      {"smiles": "O=C(O)c1ccn(Cn2cnc3ccccc32)n1", "activity change, negative = inhibition": "inactive: -8.27%"},
      {"smiles": "O=c1c[n+]([O-])c2ccccc2n1OCc1ccccn1", "activity change, negative = inhibition": "inactive: -0.105%"},
      {"smiles": "Nc1ccc(-n2ccnc2)cc1", "activity change, negative = inhibition": "inconclusive: -8.8%"},
      {"smiles": "CCN(CC)S(=O)(=O)c1ccc2c(c1)c(=O)c(C(=O)NCCCN(C)c1ccccc1)cn2C", "activity change, negative = inhibition": "inconclusive: 2.87%"},
      {"smiles": "O=C(OCCCC(=O)N1CCOCC1)c1ccccc1", "activity change, negative = inhibition": "inactive: 15.5%"},
      {"smiles": "COc1ccccc1-c1nc(NCCN2CCOCC2)c2ccccc2n1", "activity change, negative = inhibition": "inconclusive: 16.9%"},
      {"smiles": "CN1CCN(c2nc3c(c(=O)[nH]c(=O)n3C)n2Cc2cccc3ccccc23)CC1", "Potency": "inconclusive: 12.6 µM [rising, single point]"},
      {"smiles": "COc1ccccc1OCc1nc(Cc2ccc(Cl)cc2)no1", "activity change, negative = inhibition": "inconclusive: 14.2%"},
      {"smiles": "COc1ccc2c(c1OC)C(=O)N(c1cccc(C)c1)C2", "activity change, negative = inhibition": "inconclusive: 17.3%"},
      {"smiles": "COC(=O)C1=CN(C2CC2)C=C(C(=O)OC)C1c1ccc(C(=O)OC)cc1", "Potency": "inconclusive: 3.16 µM [rising, partial curve]"},
      {"smiles": "O=C(OC1CCCCC1=O)c1cc(=O)c2ccccc2o1", "note": "(stereo unspecified)", "activity change, negative = inhibition": "inactive: -1.62%"},
      {"smiles": "COc1ccc(S(=O)(=O)N2CCN(Cc3cccc(Cl)c3)CC2)cc1", "activity change, negative = inhibition": "inconclusive: 7.04% [cytotoxic]"},
      {"smiles": "CN1CCN(CCCNC(=O)C2CCN(c3nnc(-n4cccc4)s3)CC2)CC1", "activity change, negative = inhibition": "inconclusive: 8.79%"},
      {"smiles": "Cc1cc(=O)[nH]c(-n2nc(C)c(Oc3ccccc3O)c2C)n1", "Potency": "inconclusive: 5.01 µM [rising, partial curve]"},
      {"smiles": "CC(=O)c1cc(-c2ccccc2)[nH]c1N1CCCC1", "activity change, negative = inhibition": "inconclusive: -28.8%"},
      {"smiles": "Brc1ccc(-c2cnc(-c3cccs3)o2)cc1", "Potency": "inconclusive: 25.1 µM [rising, single point]"},
      {"smiles": "Cc1nc2c(c(=O)n1CCC1=CCCCC1)c1nc3ccccc3nc1n2/N=C/c1ccco1", "Potency": "inconclusive: 12.6 µM [rising, single point]"},
      {"smiles": "O=C(c1ccc(Br)cc1)N1CCN(S(=O)(=O)c2ccccc2)CC1", "activity change, negative = inhibition": "inconclusive: 26%"},
      {"smiles": "O=C(CCn1c(=S)[nH]c2ccccc2c1=O)NCCCN1CCCC1=O", "activity change, negative = inhibition": "inconclusive: -15.5%"},
      {"smiles": "O=S(=O)(c1ccccc1)N1CCC[C@@]2(CCN(C(c3ccccc3)c3ccccc3)C2)C1", "activity change, negative = inhibition": "inactive: -0.347%"},
      {"smiles": "Cc1ccc(-c2nn3c(C)nnc3s2)cc1NC(=O)c1cccnc1", "activity change, negative = inhibition": "inactive: 13%"},
      {"smiles": "O=S(=O)(c1cccs1)N1CCN(CC(O)COc2cc(Cl)ccc2Cl)CC1", "note": "(stereo unspecified)", "activity change, negative = inhibition": "inconclusive: -12.3%"},
      {"smiles": "Nc1nc2[nH]c(=O)cnc2c(=O)[nH]1", "activity change, negative = inhibition": "inactive: -1.7%"},
      {"smiles": "CCN(C(=O)COc1cc(=O)n(C)c2ccccc12)c1cccc(Cl)c1", "activity change, negative = inhibition": "inactive: 6.88%"},
      {"smiles": "COCCCNS(=O)(=O)c1ccc2c(c1)OCCO2", "Potency": "inconclusive: 0.398 µM [rising, single point]"},
      {"smiles": "CCOC(=O)c1cnc(SC)nc1Nc1cccc(F)c1", "Potency": "inconclusive: 10 µM [rising, partial curve]"},
      {"smiles": "Clc1ccc(CSc2nnc(-c3ccccn3)n2Cc2ccco2)c(Cl)c1", "activity change, negative = inhibition": "inactive: 22.8%"},
      {"smiles": "CCc1ccc(-c2cn(-c3nc(C)cc(C)n3)c(=N)o2)cc1", "Potency": "inconclusive: 10 µM [falling, partial curve]"},
      {"smiles": "CCCOc1ccc(C(=O)NCc2cccnc2)cc1", "activity change, negative = inhibition": "inconclusive: -4.83%"},
      {"smiles": "C/C=C(/C)C#N", "activity change, negative = inhibition": "inactive: -9.68%"},
      {"smiles": "Cc1ccc(S(=O)(=O)NCCOc2nc(N(C)C)nc(N3CCOCC3)n2)cc1", "activity change, negative = inhibition": "inconclusive: -6.42%"},
      {"smiles": "COc1ccc2c(=O)cc(C(F)(F)C(F)(F)F)oc2c1", "Potency": "inconclusive: 0.0631 µM [rising, partial curve, poor fit]"},
      {"smiles": "CC(NC(=O)c1ccccc1O)c1ccccc1", "note": "(stereo unspecified)", "activity change, negative = inhibition": "inconclusive: 12.9% [at 7.6 µM]"},
      {"smiles": "CCOC(=O)CSc1nnc(CNc2ccccc2Cl)n1-c1ccccc1", "activity change, negative = inhibition": "inconclusive: -5.56%"},
      {"smiles": "N#Cc1c2n(c3c(=O)n(Cc4ccccc4Cl)cnc13)CCCC2", "Potency": "inconclusive: 10 µM [rising, partial curve, poor fit]"},
      {"smiles": "Cc1cc(NCc2ccccc2Cl)n2nnnc2n1", "Potency": "inconclusive: 25.1 µM [rising, single point]"},
      {"smiles": "C[C@H](C(=O)c1ccncc1)c1ccccn1", "activity change, negative = inhibition": "inactive: -0.254% [at 7.6 µM]"},
      {"smiles": "O=S1(=O)C=C(Sc2nnc(-c3ccccc3)o2)c2ccccc21", "activity change, negative = inhibition": "inconclusive: -8.51% [cytotoxic]"},
      {"smiles": "COc1cccc(OC)c1NC(=O)Cc1nn(C)c(=O)c2ccccc12", "activity change, negative = inhibition": "inactive: 1.91%"},
      {"smiles": "CCOC(=O)C1CCN(c2ncnc3c2oc2ccc(Cl)cc23)CC1", "Potency": "inconclusive: 7.94 µM [rising, partial curve]"},
      {"smiles": "COc1cc(/C=C(\\C#N)C(N)=O)cc(CSc2nc3ccccc3s2)c1O", "Potency": "active: 25.1 µM"},
      {"smiles": "O=C(c1ccco1)N1CCN(C(=O)c2cc(-c3ccncc3)nc3ccc(Br)cc23)CC1", "activity change, negative = inhibition": "inconclusive: -2.73%"},
      {"smiles": "O=C(O)CCCSc1nc2ccccc2s1", "activity change, negative = inhibition": "inactive: -7.19% [at 7.6 µM]"},
      {"smiles": "CCOC(=O)Nc1sc(C(=O)N(CC)CC)c(C)c1C(=O)OCC", "Potency": "active: 3.98 µM"},
      {"smiles": "CCCCn1c(SCC(=O)Nc2ccc(OC)cc2)nc2ccc(N3CCOCC3)cc2c1=O", "Potency": "inconclusive: 10 µM [rising, single point]"},
      {"smiles": "CCN(CCO)Cc1cn[nH]c1-c1ccc(C)c(C)c1", "activity change, negative = inhibition": "inconclusive: 0.685%"},
      {"smiles": "COc1ccccc1C(=O)Nc1c(C)n(C)n(-c2ccccc2)c1=O", "activity change, negative = inhibition": "inactive: 0.907%"}
    ]}
  ]
}
